In test [1] the target is PLA2R-Ab in plasma pMN-2 of a PLA2R antibody-positive membranous nephropathy patient (human). Put plainly: competition ELISA (kit, PLA2R capture), RC6 at 5 µg/mL in plasma pMN-2. (In general: In an ELISA, binding on a coated surface is turned into a signal by an enzyme label.)
The target in test [2] is PLA2R-Ab in plasma pMN-4 of a PLA2R antibody-positive membranous nephropathy patient (human). Put plainly: competition ELISA (kit, PLA2R capture), RC6 at 5 µg/mL in plasma pMN-4.
Test [3] has as its target PLA2R-Ab in plasma pMN-7 of a PLA2R antibody-positive membranous nephropathy patient (human). Put plainly: competition ELISA (kit, PLA2R capture), RC6 at 5 µg/mL in plasma pMN-7.
In test [4] the target is PLA2R-Ab in plasma pMN-4 of a PLA2R antibody-positive membranous nephropathy patient (human). The test is described as follows: adsorption of plasma PMN-4 on RC6-NHS Bestarose, remaining PLA2R-Ab read by ELISA kit.
The target in test [5] is PLA2R-Ab in plasma pMN-7 of a PLA2R antibody-positive membranous nephropathy patient (human). Put plainly: adsorption of plasma PMN-7 on RC6-NHS Bestarose, remaining PLA2R-Ab read by ELISA kit.

B1: RC6 (Fc fusion)
chain: [about 200 residues left out]NSHICYQFNLLSSLSWSEAHSSCQMQGGTLLSITDETEENFIREHMSSKTVEVWMGLNQLDEHAGWQWSDGTPLNYLNWSPEVNFEPFVEDHCGTFSSFMPSAWRSRDCESTLPYICKKYLNHIDHEIVEKDAWKYYATHCEPGWNPYNRNCYKLQKEEKTWHEALRSCQADNSALIDITSLAEVEFLVTLLGDENASETWIGLSSNKIPVSFEWSNDSSVIFTNWHTLEPHIFPNRSQLCVSAEQSEGHWKVKNCEERLFYICKKAGHVLSDGGGGSGGG[human IgG1 Fc and a few adjoining residues left out]
B1: the Neutralization rate in test [1] came out at 96%; in test [2], 82%; in test [3], 81%. Also, the clearance rate in test [4] and in test [5] was over 80% throughout.

For the origin of these results see patent EP4501965A1.
